In the supplement of paper PMC3334620:
The full ranking holds about 33,000 sequences; the median of “E-score (-0.5 to 0.5)” is about -0.032, and the highest 2% start at about 0.36. Some of the results follow.

The sequences below were run against T1, Sko1 (UniProt Q02100) (assay: PBM E-score (8-mer binding enrichment) (E-score (-0.5 to 0.5)); higher = stronger / more preferred TF binding; most listed sequences are background and not binding sites). Settings: protein concentration: 200 nM; construct: GST-full length.
T1 sequence: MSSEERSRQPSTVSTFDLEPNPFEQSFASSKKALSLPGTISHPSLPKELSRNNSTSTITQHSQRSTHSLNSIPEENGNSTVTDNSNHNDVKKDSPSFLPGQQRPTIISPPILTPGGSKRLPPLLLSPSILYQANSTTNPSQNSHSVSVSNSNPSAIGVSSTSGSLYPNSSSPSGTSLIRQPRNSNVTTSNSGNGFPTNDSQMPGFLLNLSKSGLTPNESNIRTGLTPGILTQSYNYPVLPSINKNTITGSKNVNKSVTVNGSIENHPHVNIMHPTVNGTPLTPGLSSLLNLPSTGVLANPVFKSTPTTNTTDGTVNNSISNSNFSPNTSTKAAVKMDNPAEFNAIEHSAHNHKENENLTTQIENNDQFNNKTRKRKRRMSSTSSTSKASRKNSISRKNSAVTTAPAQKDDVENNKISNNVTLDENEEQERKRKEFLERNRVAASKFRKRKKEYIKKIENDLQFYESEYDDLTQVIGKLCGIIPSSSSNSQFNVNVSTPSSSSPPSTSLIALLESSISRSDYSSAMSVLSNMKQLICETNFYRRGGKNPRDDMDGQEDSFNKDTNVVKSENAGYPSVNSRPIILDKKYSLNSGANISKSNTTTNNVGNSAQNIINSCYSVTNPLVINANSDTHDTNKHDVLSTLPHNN
Procedure: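 Universal 'all 10-mer' protein binding microarrays (Agilent AMADID 015681) probed with GST-tagged S. cerevisiae TFs (full-length or DBD) made by in vitro transcription/translation (PURExpress), about 100-200 nM. Bound TF was detected with fluorescent anti-GST. Each ungapped 8-mer (which stands for itself and its reverse complement) is scored by the PBM enrichment score (E-score), a modified Wilcoxon-Mann-Whitney statistic from -0.5 to +0.5, computed with the Universal PBM Analysis Suite. Scale: above 0.35 generally sequence-specific binding.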

Sequence	PBM E-score
CCATGATC	-0.0725
CAACTGCC	-0.0672
GGCCTAAC	-0.115
GCTAGGGA	-0.366
CGTTTGGA	0.0125
CTTTGGCC	-0.0406
TAACCGGA	-0.106
CACTACAC	0.115
AAGCTGCG	-0.0505
CGGGCATA	-0.167
AATGAGAC	-0.106
TCAACCAA	0.092
GTGGTTCA	0.136
ACCTTGAT	-0.12
TGATGTAA	0.434
GAGTAAAC	0.00425
GTTAGAAC	0.182
AGCTCGGG	-0.202
GCGATGTA	0.135
AATCAGTA	0.0871
AGTACCAG	-0.0512
GGACGTGA	0.181
ACCTCTGC	-0.296
AGTCTGTG	-0.131
AATGCTTC	-0.0667

Sequence	PBM E-score
CAAACCTA	0.0861
AGCATTCC	-0.095
CTTTTTTA	0.0539
CAACATAG	-0.0302
TTACCGAA	0.0923
ACCTACTA	0.109
ACTGTGAG	-0.108
GCTTACCA	-0.0214
CTATCACA	0.0977
TGATATCA	0.307
ATTATGCG	0.231
ATAGGATC	-0.145
GCGAACAA	0.0976
CCAGGGGG	-0.21
CCGGGGTA	-0.305
AATGTGGG	-0.0795
ACTGGCCC	-0.236
ACCGCCCA	-0.312
AAGAGACA	0.0233
AACAGGGC	-0.204
GCGTCTCA	0.0184
AACCAAAG	0.00562
CCACGGCC	-0.166
CTCAAATC	-0.0426
AATCCGCG	-0.0276

Sequence	PBM E-score
CGATCGAA	-0.131
ATGGCGCA	0.21
ACTATTTA	0.0998
AGCCGGGG	-0.274
CCTACCCG	-0.0568
CCAGTACC	-0.185
GAGTAGTA	-0.054
CACATAGC	-0.0437
AGCTATGC	0.0129
CAATGGCA	-0.0732
CTACTTAC	0.132
CATCTGAC	-0.0444
AACTATCC	-0.237
AATTCTGT	0.075
GCCGAACC	-0.251
GGTGGGAC	-0.199
AACAATTA	0.263
ATTACACC	0.105
CTACGCAC	0.315
CGTTACAC	0.126
GCGTTTCA	-0.0433
ACTGAAAG	0.0387
GGTGTCCA	-0.177
CCCTTGGA	-0.1
CCAGCGTA	-0.014

Sequence	PBM E-score
CAAAGTCA	-0.0486
AGATGCAC	-0.0198
CTATTCGA	0.0674
CTTGCCGC	-0.0196
GAAGCTTC	-0.375
GGTTAGCA	-0.177
GAATTCAA	0.0513
GGCATCCA	-0.201
CCGAGGTA	-0.161
AAAAATGC	0.00691
AAGCATTG	-0.123
GAACGGAC	-0.228
GTGGAGCA	-0.21
AGCCTTAA	-0.136
AGGAGATC	-0.214
AACAAGTG	0.064
AAGGGTAC	-0.083
AATCTTCA	0.175
AGGAAGCC	-0.147
CGACCCAC	-0.147
CAGCACTA	-0.15
AGTATTCC	0.0387
GCTCCGAA	-0.0558
ACACTGAT	-0.132
GTGTTTGA	0.258

Sequence	PBM E-score
AAGTATTG	0.15
CCCAGTTC	-0.144
GGAGCCGA	-0.149
TGTCCACA	-0.0162
TATTTGCA	0.258
ACCCTGAA	-0.0751
AGCAACGA	0.0335
GTTCGCTA	0.0269
ATTCATGC	-0.0766
GGGGCACA	-0.254
GGCAAGAA	-0.00879
GAGCAGGA	-0.112
GATACGCA	0.351
GTTCTTTA	0.175
TAAGAACA	0.212
ACACAGTG	0.00218
GATCAACC	-0.0251
ATTGAGGA	-0.038
AAGGGTGG	-0.237
ATATATAG	0.192
AGCCACCA	-0.177
ACGTATGC	0.458
TCTAATAA	0.274
CTGGGATA	-0.212
AATGATGA	0.328

Sequence	PBM E-score
TCGTTTAA	0.183
AGAATTTA	0.112
TCGCGACA	-0.0189
AAGCATGA	0.0422
CCAGGGGA	-0.391
CTTACCGA	0.0604
GGCGATAC	-0.0442
TCGCAAAA	0.0979
TCGCTCAA	-0.0492
ATATCATC	0.238
CTAAACCA	0.0153
AATGTGAA	0.214
ACGGATTA	0.0137
ACTGCGCT	-0.00019
TCGTACCA	0.111
CCAGTCTC	-0.22
CCACCACG	0.23
GCCAAGCC	-0.284
AACCTCAC	-0.0124
ACTCTGGA	0.0694
CCTAGAAG	-0.17
CTGAATTC	-0.106
ATGTTCCA	-0.0276
AGGCTTCA	-0.302
ACTGGAGG	-0.358

Sequence	PBM E-score
AGATAGTG	0.0573
GCTACCAA	-0.167
GCCGCGCC	-0.269
AAAGCCTG	-0.116
GCGTTGCA	0.0662
GCCTCGAA	-0.149
TAGGCCTA	0.108
ATAGGGAC	-0.231
AGACTGTA	-0.0593
ATCACGTC	0.42
AATGAAAA	0.16
ACTGTCGG	-0.185
AATGGTGG	-0.13
TCCTGAAA	0.0812
CCGTCCAC	-0.113
AGGTTATC	-0.223
CTACGATA	0.183
GTGGCGCA	0.0382
ATAAAAGA	0.116
GCTCTAAA	0.0432
CCTATTCC	-0.0902
GCGTCGGA	0.0489
AGATCGGG	-0.268
AGGTTCGA	0.081
AATGATTG	0.118

Sequence	PBM E-score
ACAAAGCC	-0.0169
ATGTCAAC	0.166
AGGATCCG	-0.257
TAAACACA	0.133
TCCAGCAA	-0.0124
AGTCGGAA	-0.0901
GGGTGACA	-0.0564
CGGTTTAG	-0.298
AGCAGAAT	0.102
GACGGACC	-0.0678
AGGGAACT	-0.272
GCTATGGA	-0.0316
ATGAATAA	0.0192
CGCGCATC	0.0476
CTCCTTCC	-0.0999
ACGCAGAT	0.155
CAAGGGCG	-0.108
ATCTGGGA	-0.147
CAAGATTC	0.0386
ACGCTTGG	0.0624
CTGCTTGA	-0.193
GAATCAGA	0.0109
AGATAGAC	-0.00149
ATATATGC	0.142
AGCTAACT	-0.0352

Sequence	PBM E-score
ACAGTATC	0.179
AGTCAAGC	-0.191
ACGCGCCA	0.0509
CAAAGGAC	-0.185
ATTTTTAA	0.305
CGATGGTA	-0.163
GCAACACC	0.00519
CCACCCAA	-0.263
GACGATGC	0.169
AATAACGG	0.138
TCGCGAGA	0.0253
AGCTACGG	-0.193
GCCGTTAC	0.0343
CTCCTGTC	-0.2
ATAAGGAG	-0.159
GGTGGCAC	-0.228
CTCCATCA	-0.113
AATGGGCA	-0.106
CGAAACCG	-0.0688
